Data on 56 variants can be found in the RNAGym collection of RNA variant scans (doi:10.7554/elife.90254).

Sequences and labels used below:
B1: LINE1-mini (parent)
chain: GGCAGAGCUCAACACAGCGUGGCAAAGUGGCUGUGGCUAGACUGCC

Read counts are not given, so values of variants with three or more changes are uncertain.

In this series the parent is B1. In words: self-cleavage, relative activity (ratio to wild type); higher = more cleavage; in vitro, sequencing; the parent is a self-cleaving ribozyme.
On to GUCUGAGCUCAACACAGCGUGGCAAAGUUGGCGUGGCUAGACUGAC [G2U A4U G29U C31G U32C C45A], for which the self-cleavage came to 0.01. The figure for GUCAGAGCUCAACACAGCGUGGCUCAGUGGCUUUGGCUAGACUGCC [G2U A24U A25C G33U] is 0.02; for GUGAGUGCUCAACACAGCGUGGCAAAGUUGCUGUGGCUAGACUGCU [G2U C3G A6U G29U C46U] it is 0.24; for GUCAGCGCUCAACACAGCGUGGCAAAGACGCUGUGGCAAGACUGCC [G2U A6C U28A G29C U38A] it is 0. To GUCAGAGCUCAACUCAGCGUGGCAAAGUGUCAGUGGCUAGACUGCC [G2U A14U G30U U32A] belongs 0.

For the variant GUCAGCGCUCAACACAGCGUGGCAAAGUGGCUGAGGCUAGACUGCC [G2U A6C U34A], the self-cleavage was determined as 0.01.

Take GUCAGAGCUCAACCCAGCGUGGCAAAGUGGCCGUGGCUAGACUGCC [G2U A14C U32C]: the self-cleavage is 0.03. The figure for GUAAGAGCUCAACGCAGCGUGGCCAAGUGGCUCUGGCUAGACUGCC [G2U C3A A14G A24C G33C] is 0.13; for GUCAGAGCUCCACACAGCGUGGCAAAUUGGGUCUGGCUAGAGUGCC [G2U A11C G27U C31G G33C C42G] it is 0.01. As to GUAAGGGCUAAACACAGCGCGGCAAAGUGGCUGUGGCUAGCCUGCC [G2U C3A A6G C10A U20C A41C], the self-cleavage turned out to be 0.03. To GUCAGAGCUCAUCGCAGCGUCGCAAUGUGGCUGUGGCUAGACUGCC [G2U A12U A14G G21C A26U] belongs 0.01; to GUCAGAGCUCAACCCAGCGUGGCAAAGUGGCUGCGGCAAGACUGCC [G2U A14C U34C U38A], 0.02; to GUCAGAGCUCAGCACAGCGUGGCAAAGUGGCUGUGGCAAGACUGCC [G2U A12G U38A], 0.02. For GUCAGAGCUCAACCCAGCGUGGCAAAGUGUCUGCGGUUAGACUGCC [G2U A14C G30U U34C C37U], the self-cleavage turned out to be 0.01. The figure for GUCAGUCCUCAACACAGCGUGGCAAAGUGGCUGUGAAUAGACUGCC [G2U A6U G7C G36A C37A] is 0.12; for GUCUGAGCUCAACACAGCGUGGCAAAGUGGCUGUGUCUAGACUGCC [G2U A4U G36U] it is 0.09; for GUCAGAGCUCAACGCAGCGUGGCAAAGUGGCUAUGGCUAGACUGAC [G2U A14G G33A C45A] it is 0.02.

Turning to GUCAGAGCUCGACACAGCGUGGCCAAUUGGCUGUGCCUAGACUGCC [G2U A11G A24C G27U G36C], the self-cleavage was determined as 0.01. Regarding GUCAGAGCUCAACGCCGCGUGGCAAAGUGGCUGUGGCUAGACUGCC [G2U A14G A16C], the self-cleavage was determined as 0.01. As to GUGCGAGCUCAACACAGCGUGGCAAAGUGGCUGUGGCUAGACUGCC [G2U C3G A4C], the self-cleavage was determined as 0.12. The figure for GUCAGUGCUCAACUCAUCGUGGUAAAGUGGCUGUGGCUAGACUGCC [G2U A6U A14U G17U C23U] is 0; for GUCAGAGCUCGACACAGCGUGGCAAAGUGGCUGUGGCUAGACUCGC [G2U A11G G44C C45G] it is 0.01; for GUGGGAGCUCUACACAUCGUUGCAAAGUCGCUGUGACUUGACUGCC [G2U C3G A4G A11U G17U G21U G29C G36A A39U] it is 0.01. Consider GUAAAAGCUCAACACAGUGCGGCAAAGUGGCUGUGGCUAGACUGCC [G2U C3A G5A C18U U20C], for which the self-cleavage came to 0.46.

Turning to GUAAGAGGUCAACACAGCGUGGCAAUGUGGCUGUGGCUAGACUGCC [G2U C3A C8G A26U], the self-cleavage stood at 0.72. With GUUAGAGCUCAAGCCAGCUCGGCAAAGUGGCUGUGGCUAGACUGCC [G2U C3U C13G A14C G19U U20C], the self-cleavage amounted to 0.08.

Consider GUCAGAGCUCAGCACAGCGAGGCAAAGCGGCUGUGGCUAGACUGCC [G2U A12G U20A U28C], for which the self-cleavage stood at 0.01.

Take GUCAGUGCUCAACACAGCCUGGCAAAGUGGCUGUGGCUAGUCUGCC [G2U A6U G19C A41U]: the self-cleavage was determined as 0.06. To GUAAGAGCUCAACACAGCGUGGCAAAGUUGCUGUGGGUAGUCUGCU [G2U C3A G29U C37G A41U C46U] belongs 0.1. To GUUAGAGCUCAACUCAGCGUGGCAAAGUGGCUGUGGCCAGACUGCC [G2U C3U A14U U38C] belongs 0.05; to GUCAGAGCUCAACACGCCGUGGCAAAGUGGUUGUGGCUAGACUGCC [G2U A16G G17C C31U], 0.02. GUCAGCGCUCAACACAGCGUGGUAAAGUGGCUGUGGCUAGACUGCC [G2U A6C C23U]: the self-cleavage was determined as 0.05. The figure for GUCAGAGCUCAACUCAGCGAGGCAAAGUGUCUGUGGCUAGAAUGCC [G2U A14U U20A G30U C42A] is 0.04; for GUCAGCGCUCAACACAGCGUGGCAAACAGGCUGUGGCCAGACUGCC [G2U A6C G27C U28A U38C] it is 0; for GUCAGAGCUCACCACAACGUCGCAAGGUGGCUGUUGCUAUAGUGCC [G2U A12C G17A G21C A26G G35U G40U C42G] it is 0.

Turning to GUCAGAGCUCAACACUGCGUGGCAAAGUGGCUGUGGCUAGACUACA [G2U A16U G44A C46A], the self-cleavage is 0.01. Take GUCAGCGCUCAACACAGAGUGGCAAAGUGGCUGUGGAUAGACUGCC [G2U A6C C18A C37A]: the self-cleavage amounted to 0. The figure for GUGAGAGCUCAACAACUCGUGGCAAAAUCGCUGUGGCUAGAAUGCC [G2U C3G C15A A16C G17U G27A G29C C42A] is 0.12; for GUCAGAGCUCCCCACAGCGCGGCUAAGUGGCUGUGGCUAGACUGCC [G2U A11C A12C U20C A24U] it is 0.01; for GUCAGGGCUCAACACAGCGUGGCAAAGUGACUGUGGCUAGACUGCC [G2U A6G G30A] it is 0.04. To GUCAGAGCUCAACGAAGCGUGGCAAAGUGGUUGAGGAUAGACUGCC [G2U A14G C15A C31U U34A C37A] belongs 0.04; to GUCAGAGCUCACCACAGCGUGGCAAAUUGGCUUUGGCUAGACUGCC [G2U A12C G27U G33U], 0.02.

As for GUGAGAGCUCUACACAGUGUAGAAAAGUGGCUGUGCCUAGACUGGC [G2U C3G A11U C18U G21A C23A G36C C45G], the self-cleavage amounted to 0.01.

Turning to GUCUGAGCUCAACACACCGUGGCAAAGUGGCUGUGGUUAGACUGCC [G2U A4U G17C C37U], the self-cleavage was 0.02. Turning to GUCAGAGCUCUACACAGCGUGGCAAAGUGGCUGUGGCUUGACUGCC [G2U A11U A39U], the self-cleavage is 0.02. Regarding GUCAGAGCUCAACACAGCGUGGCUAGGUGGAUGUGGCUAGACUGCC [G2U A24U A26G C31A], the self-cleavage was 0.01. To GUUAGAGCUAAACACAGCGUGGACAAGCGGCUGUGGCUAGACUGCC [G2U C3U C10A C23A A24C U28C] belongs 0.02; to GUCAGGGCUCAACAGAGCGUGGCAAAGUGGCUGUGGCUAGAAUGCC [G2U A6G C15G C42A], 0.01; to GUCAGAGCUCAACUCAGCGUCGCAAAGUGGCUGUGGGUAGACUGCC [G2U A14U G21C C37G], 0.03.

Regarding GUCAGAGCUCAACACAGCGUGGCAACGUGGCGGACGCUAGACCGCC [G2U A26C U32G U34A G35C U43C], the self-cleavage stood at 0. To GUCAGAGCUCAGCACAACGGGGAAAAGUGGCUGUGGCUAGACUGCC [G2U A12G G17A U20G C23A] belongs 0.01; to GUUAGAGCUCAAUGCAGCGUGGCAAAGUGGCUGUGGCUAGACUGCC [G2U C3U C13U A14G], 0.02; to GUCAGAGCUCAACACAGCGUGGCAUAGUGGCUGUGGCUAGACUGCG [G2U A25U C46G], 0.06. GUCAGAGCUCAUCACACCGUGGCAAAGUGGCUGUGGCUAGACUGCC [G2U A12U G17C]: the self-cleavage was 0.02. With GUCAGAGCUCAACACAGCGUGGCAAGGUGGCUGUGGCUAUACUGCC [G2U A26G G40U], the self-cleavage came to 0.03. The figure for GUAAGAGCUCAACACAGCGUGGCAAAGUGGCUGUGGCAAGACUGCA [G2U C3A U38A C46A] is 0.09.
